Results on 44 sequences are retold here after the supplement of paper PMC11417369.

The list shows a part of the results.

For this assay, the system named is PfAP2-HC AP2 domain (GST-tagged). In words: gcPBM binding intensity (ln(normalized median fluorescence intensity)); higher = stronger DNA binding. Summed up: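 The binding buffer was 1× PBS containing 1% milk, 0.2 mg/ml BSA, 0.5% salmon testes DNA and 0.03% Triton X-100. In it, GST-tagged P. falciparum DNA-binding domains expressed in E. coli were applied for 1 h to an Agilent 4 × 180k array of primer-extended double-stranded 36-bp intergenic genomic probes plus negative controls. Binding intensity, read with Alexa488 anti-GST antibody and a 488 nm scan, is the highest Masliner-normalised natural-log median intensity across replicate spots of either probe orientation.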
“AAATAAAAATAAAATAAAATAAAATTAAATGGGAAT [GTGCAC_negctrl_site349]”: the “gcPBM binding intensity (ln)” value amounted to 9.83.

“GTTTTATATTATATATGTACATATCCATGAGATATA [XGTACX_site3328]”: the “gcPBM binding intensity (ln)” value turned out to be 9.75. Then “TTTAACTTTTATATAACACACATATTGTAATTATGT [CACACA_site6486]”, with 9.99; and “TTCATATGTTTTAACACACACGCATATATTATATAT [CACACA_site2007]”, with 10.1. In the case of “AAAAAAATTTGGCATACACACACACCCCCACCCACA [CACACA_site8094]” it was 10.6; in that of AAAAAACATTTTCGAGTGCATGTTTTGCTTTATTTC, 9.64. “AATAATTTGGTCTTATCAAAAATTAAAAATAAATAA [XGTACX_negctrl_site430]”: the “gcPBM binding intensity (ln)” value came to 9.41. Then “TTAAATGTTAAAAGGGTGCTATTATATAAATGAAAA [GTGCAC_site9882]”, with 9.48; and “TATAAATATAGACACACACACACCAAAGCGTAGCGC [CACACA_site6179]”, with 10.3. Then “TATATATATTATAATACATGCGGTGATGAAAGTTAT [TGCATGCA_site924]”, with 9.94; and “TATGAAGTACACAATACACACTAATTATATATAAAT [CACACA_site5444]”, with 9.91. In the case of “TTTTTAAAAAAACATACACACAAAAAAAAAAAAAAA [CACACA_site3935]” it was 9.31; in that of “TTTTTTTATATAGACACAAAAGAAAATTACATATAC [CACACA_negctrl_site235]”, 9.23; in that of “TATAATATATATATATTTATATATATCTTCCTAATC [GTGCAC_negctrl_site682]”, 9.59. Take “AAAAAAAAAAAAAAAACACACAAGGATCATATATAT [CACACA_site3812]”: the “gcPBM binding intensity (ln)” value is 10. As for “AATATTTATTTTATATGTACATAATTTATTTTTAAT [XGTACX_site776]”, the “gcPBM binding intensity (ln)” value was found to be 9.71. Then “GATTTGTCTTACAGTGGTACACTTATATATATGTGA [XGTACX_site2899]”, with 9.74; and “TATATTATATTTTTATGTACATATATGTTTTTTTTT [XGTACX_site8239]”, with 9.84.

For the sequence “AATAAAAATATATCCACACACATATATATATCTGTA [CACACA_site4481]”, the “gcPBM binding intensity (ln)” value turned out to be 9.98. Then “ATTTTATCAAGAGGAAGTACATTACCCCATGAAAAA [XGTACX_site8295]”, with 9.44; and “AATATAAATAATAGTAGTACATATATATCTCAGAAA [XGTACX_site4055]”, with 9.81. As to “AATGGAGTTTATAAGTATAAACGAGGGATACCTAAA [XGTACX_negctrl_site483]”, the “gcPBM binding intensity (ln)” value was found to be 9.69. As to “TAAATAAATTTATACACACACACACCCATATATATA [CACACA_site849]”, the “gcPBM binding intensity (ln)” value turned out to be 10.9. Turning to “TTATGTTGTAAATGCACACATACATATACGCAGTTT [CACACA_site3015]”, the “gcPBM binding intensity (ln)” value came out at 9.83. Then “CAATTTTACTCATAAACACACATATAGATGTTATTA [CACACA_site7474]”, with 9.6. In the case of “TATATATATATATGATGTACATGAAAATTTCCAAAA [XGTACX_site5472]” it was 9.75. In the case of “TATATTTTTTAATTCACACAAAAATGAAAAATATTT [CACACA_site6001]” it was 9.41. As for “ATATCTGAAGTGTAAAGTACATATATATATTCATAT [XGTACX_site4612]”, the “gcPBM binding intensity (ln)” value was 9.67. In the case of “ACATAATAAAAATAAATTCATAAGTAAATAAATAAA [TGCATGCA_negctrl_site186]” it was 9.68; in that of “TGCTACATTTTATGTACACACATATACAGATATATA [CACACA_site4646]”, 9.85; in that of “TGAATAAATCAAAGCACACATACACCCACATATATA [CACACA_site286]”, 10.2. In the case of “AATAATATTTAATACACACACCAGTTCTGCAAATTT [CACACA_site7712]” it was 10.

As to “GAAAAAAGAAATTAAACATGCATCTGCAAATTTAAA [TGCATGCA_site974]”, the “gcPBM binding intensity (ln)” value was 9.55. In the case of “AATAGTAAAAGATATACACACACCAAAAAATATAAT [CACACA_site5293]” it was 10.3; in that of “TTACACATGTTTAACTGTACACATAATAGCAATATT [XGTACX_site8545]”, 9.68. Then “ACAATTATTTTGTTCTTTAATGGTAGGTTCTATGTC [CACACA_negctrl_site1419]”, with 9.54.

Regarding “CATAAATTACTTTTTACACACTAAAATAAAATACAA [CACACA_site1135]”, the “gcPBM binding intensity (ln)” value was 9.65.

With “AATACACGCAGACACACACACACACGCACATATATA [CACACA_site6447]”, the “gcPBM binding intensity (ln)” value was 10.8. In the case of “CTAAAAAATAGTAAAAGTACATAAATAATTTTGCTT [XGTACX_site8919]” it was 9.6; in that of “TTATATATTTTTATGTGTACTTATATATATATATAT [XGTACX_site6211]”, 9.77; in that of “ATTTCCCTATATAGAGCATGCACTATATTCAAATGA [TGCATGCA_site531]”, 9.58. Regarding “CACAAAGACACAAACACACACACACCCACATACATA [CACACA_site452]”, the “gcPBM binding intensity (ln)” value turned out to be 10.5. Then “AACAAAAACACTTTTACACACATAAGTAAAATATAT [CACACA_site1994]”, with 9.91; and “TACTTATTTAAAATAGTGCATGAATAGAAGATATAT [GTGCAC_site9756]”, with 9.59.
